{"source": "PubChem BioAssay (NCI)", "test_system": "786-0 renal", "assay": "NCI-60 one-dose screen, 48 h (100 = growth as untreated, 0 = no growth, -100 = all killed)", "details": "0.25 µM", "note": "A structure can be active in one record and inactive in another.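 Percent growth is the endpoint: 0 to 100 indicates growth inhibition (40 means 60% inhibition), 0 means no net growth, and negative values indicate cell death.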 Some entries of the source have several records that differ or are many. This list holds those alone. The calls were made as follows: active = growth percent below 10; inactive = the rest. The source may hold further records. These are repeated runs of one drug, at the concentration stated with the values; each value is one run. Signs of the kind (2×) give the number of equal values in this list.", "data": [{"smiles": "COc1cccc2c1C(=O)c1c(O)c3c(c(O)c1C2=O)C[C@@](O)(C(=O)CO)C[C@@H]3OC1CC(N)C(O)C(C)O1", "note": "(stereo not given in full)", "values": [{"measurement": "growth", "setting": "runs of 2006", "value": "inactive: 14.6%, 14.3%"}, {"measurement": "growth", "setting": "runs of 2007", "value": "active: 0.385, 9.22, -2.69, -21.6, -20.4, 1.9% and inactive: 16.1, 23.3 (2×), 11.9 (2×), 21.9, 24.3, 25.7 (2×), 25.2, 28.3, 35.7, 44.2, 23.9, 23.6 (2×), 10.4, 30.6, 19.2, 17.8, 65.9, 30.4, 23.5, 34.5, 25.5 (2×), 28.8, 30.5, 21.6, 18.5, 23.4, 29.3%"}, {"measurement": "growth", "setting": "runs of 2008", "value": "inactive: 42.4, 28.3, 26, 25.7, 30.3, 29, 31.7, 34.6, 33.5, 10.6 (2×), 18.4 (2×), 19.7, 21.5, 23.1, 32, 16.4, 14 (2×), 13.7 (2×), 20.1, 93.5, 20.3, 17, 19.5, 13.5, 40.4, 45.5, 31.2, 34.7, 29.4, 56.3, 13.3, 11.3, 12.4, 14.9% and active: 0.171, 6.89, 1.13, 2.75, 9.79, 7.51, -1.89, 8.66, 9.29, 8.96, 7.07, -13.8%"}, {"measurement": "growth", "setting": "runs of 2009", "value": "active: 6.57, -6.33, 8.86, 6.25, -8.17, 5.62, 3.51, 8.39, 7.19, 9.01, 6.17, 2.4, 7.79, 6.89, 9.25, 9.36, 6.87, 5.07, -7.76, 9.54, 7.78, -19.4, 5.41, -10.9, 9.41, -14.5, -20.8, 4.27, 6.51, 8.51, 8.44, 6.43, 8.99, 4.13, -12.8% and inactive: 29.5, 14.5 (3×), 11.7, 13.5, 29.6, 17.7, 16.4, 22.5, 26.5, 19.9, 13.7, 15.4, 16.7, 17.4 (2×), 12.8, 12, 12.2, 24.3, 10.6, 17.6, 29.2, 11.8, 13.9 (2×), 14, 16.8, 13, 10.9, 10.1, 12.7, 24.8, 25.8, 20.4, 18.2, 15.5%"}, {"measurement": "growth", "setting": "runs of 2010", "value": "inactive: 14.3, 26.9, 12.1, 21.8, 19.5, 17.9, 21.5 (3×), 38.7, 25.3, 32.1, 34.3 (2×), 24.2, 22.9, 24.9, 33.1, 18.6, 27.7 (2×), 34.2, 14.7, 25 (3×), 16.5, 20.9, 31, 19.3, 18.4, 42.8, 22.6, 17.3, 22, 18.3, 23.1, 16.4, 33.9, 33.4, 30.4, 29.5, 24.8, 30.1 (2×), 34.6, 21.9, 40.3% and active: 4.26%, -3.47%"}, {"measurement": "growth", "setting": "runs of 2011", "value": "inactive: 31.5 (2×), 28.6, 38.7, 40.7, 33.6 (2×), 29.1, 32 (2×), 41.1, 54.4 (2×), 40.2, 29.6, 35.6, 25.2, 35.2, 26.3, 29.4, 33.2, 30.5, 31.8, 29.9, 30.1, 28.5, 25.5, 22.7 (2×), 35, 33.4, 15.9, 10.3, 20.6 (3×), 12.9, 22, 17.1, 12.4, 10.2, 12.2, 14.7, 14.6, 24.7, 19.5, 10.8, 19.7, 28.7, 21.8, 16.4, 18.6, 31.7, 23.4% and active: 9.42%"}, {"measurement": "growth", "setting": "runs of 2012", "value": "inactive: 21.5, 11.4, 22.6, 19.4, 22.2, 22 (2×), 17, 24.3, 28.3, 29.7, 17.7 (2×), 20.3, 16.7, 13.7, 15.7 (2×), 16.8, 20, 12.4, 13.5, 15, 13.6, 17.9, 30.4, 29.2, 27.9, 30.6, 26.3, 23, 19.5 (2×), 22.8, 25.4, 11.2, 44.4, 19.2, 63.8, 31, 35.1, 48.1, 43.1, 41.8 (2×), 39.6, 44.5, 34.5, 29.1, 35.6, 37.9, 40, 36.1, 48.3, 46.1, 21.8, 36.9, 42.3, 39.2, 48.5, 52.9, 38.5, 36.8, 42.7, 26.5, 20.5, 26.4, 29.5, 18.1%"}, {"measurement": "growth", "setting": "runs of 2013", "value": "inactive: 18.2, 29.6 (2×), 32.6, 28.4 (2×), 26.2, 46.6, 40.1, 51.1, 54, 37.4, 44.5, 42.7, 44.4, 51.8, 48.7, 34.6 (2×), 37 (2×), 28.9, 33.8, 35.5 (2×), 32.3, 35.7 (2×), 39.6, 43.8 (2×), 45.8, 44.7, 42.6, 42.2, 55.5, 52.4, 46, 31.6, 39.1, 38.9, 44, 46.5, 27.3, 39.3, 27.9, 37.2, 29.1, 34, 19.4, 31.7, 41.7, 21.5, 24.1, 14.2, 14, 12.8 (2×), 24.3, 31.9, 27.7, 30.5, 17, 10.1, 17.3, 20.1, 25.3, 15.4, 21.9% and active: 8.14, 9.53, 4.65, 7.92%"}, {"measurement": "growth", "setting": "runs of 2014", "value": "inactive: 23.1, 23.2 (2×), 18 (2×), 19.1 (2×), 13.8, 16.5 (2×), 13, 12.3, 12.5, 18.5 (2×), 20.6, 20.5, 22, 26.2, 33.4, 31.7, 27.9, 26.7 (2×), 26.9 (2×), 17.7, 25.9 (2×), 18.9, 15.6, 22.6, 20.3, 12.8, 15.8, 12.7, 24.3, 18.3, 23 (3×), 10.8, 10.7, 16.8, 20.9, 22.2, 21.5 (2×), 18.1, 26, 30.8, 14.8, 21.8 (3×), 22.7, 16.6, 21, 14, 21.3, 20.7, 29.8, 19.9, 24.4, 15.4, 21.9% and active: 2.99, 6.54, 6.44, 3.16, 9.51, 8.79, 9.2, 7.88%"}, {"measurement": "growth", "setting": "runs of 2015", "value": "inactive: 28.8, 19.9 (3×), 20.4 (2×), 12 (3×), 22 (4×), 18, 16.9, 17.8, 11.7, 14.2, 33.5, 13.5 (2×), 10.6, 18.8, 19.3, 23.3, 36.2, 31.9, 21.2 (3×), 20.7, 16.6, 16.7, 20, 17.9, 27.2, 15.9, 21.9, 11.6, 20.1, 12.6, 20.5, 11, 18.7, 18.1, 24.8, 15.2, 17 (2×), 12.2, 11.4, 12.4, 22.2 (2×), 13.9, 10.4, 14.4, 23.1, 49.8, 18.2, 12.8, 23, 31.5, 29.8, 16.5, 22.8, 20.9, 24.4, 21.5, 19.7, 24.1, 23.6, 16.1, 19.2, 25.7, 30.5, 21, 35.4, 31.6, 41.1, 34.8, 38.2% and active: 8.7, 9.94, 9.61, 7.89, 2.35%"}, {"measurement": "growth", "setting": "runs of 2016", "value": "inactive: 20.5, 26, 20.1, 22.7 (3×), 36.3, 13.5, 22.2, 25.3, 18.4, 21.7, 22.9, 10.5, 14.2, 12.1, 17.3, 11.2, 16.9, 13.9, 15.7, 18.3, 16.2, 12.4, 16.6 (2×), 24.8, 22 (2×), 12.7 (2×), 13.3, 12.5, 21.8, 15.4, 16, 19.5, 18.5, 14.3, 20.7 (2×), 23.5, 29.4, 24.1, 29, 30.1 (2×), 34.1 (2×), 27.9, 32 (2×), 33.9, 25.2, 28.6, 31.6, 26.3 (2×), 31.2, 33.8, 37.8, 29.9, 24.3, 30.5, 23.1, 31.5 (2×), 33.2, 39.3, 31.8, 36.1, 29.8, 34.7, 32.3, 42.8, 45.1, 41, 30.6, 25, 26.8, 30.7, 30.8, 31.4, 40.8, 27.2, 32.7%"}, {"measurement": "growth", "setting": "runs of 2017", "value": "inactive: 23, 25.9, 21.8, 23.4 (2×), 10.6, 17.7 (2×), 23.2, 11.6, 22.5, 18.3, 11.7, 15.6, 22, 12.2 (2×), 17.2, 16.5 (2×), 12.3, 14.2, 19.9, 14.8 (2×), 17.9, 16.2, 17.8 (2×), 13.6, 13.1, 16.7 (2×), 20, 15.4, 20.5 (2×), 13.4, 16.4, 19.7 (2×), 11.3, 17.4, 19.8 (2×), 14.7, 16.1, 17.5, 25.6, 19.3, 22.8, 26.2, 28.7, 21.6, 29.9, 22.7, 21.3, 29.2, 24.2, 24.1, 17.6, 21, 16.3, 27.1, 17, 14.9 (2×), 20.3, 11.1, 19.2, 11.5, 14.4, 15.9 (2×), 15, 18.6, 16, 13.7, 18.5, 18, 21.7, 16.9% and active: 9.23%"}, {"measurement": "growth", "setting": "runs of 2018", "value": "inactive: 23.4, 25.9 (2×), 17.9, 16.4 (2×), 21.2, 21.7, 19.5, 20.3 (2×), 20, 19.4, 20.5 (4×), 20.2, 17.1, 16, 20.4, 18.1 (2×), 17.4, 14.5, 30.8, 18.3, 18.7, 23.9, 27.9, 30.2, 18.2, 16.3, 19.7, 21.6 (2×), 22.6, 21.8 (2×), 22.5, 18.8, 18.9 (2×), 19.9, 24.2 (2×), 28.6, 22.8 (2×), 22.7, 21.3, 15.4, 13.8, 19.1%"}, {"measurement": "growth", "setting": "runs of 2019", "value": "inactive: 17.8 (2×), 15.3, 11.4, 21.2, 16.7, 15.8, 10.9, 14.4, 12.2, 14.2, 18.6 (2×), 18.4, 18.7, 13.7, 24.4, 18.5, 14.5 (2×), 20.4, 25, 15.9 (2×), 26, 18.3, 21.6, 16.8, 17.3, 15.7, 21, 17, 18.1, 18.9, 16.9, 14.6, 20.1, 11.6, 13.1, 13.3% and active: 7.35%, 9.45%, 9.93%"}, {"measurement": "growth", "setting": "runs of 2020", "value": "inactive: 10, 10.9, 22, 23.2, 22.9, 23, 21.8, 15.7, 17, 18.1, 14.2, 15.4, 31, 16, 19.3 (2×), 23.1, 21.6, 25.9, 23.4, 21.5, 21.9%"}]}]}
